# This is one part of the list. Most values come without repeats; read them as rough.
# Experiments:
# Test in all cases: cell count relative to DMSO control; melanoma cells; higher = more viable cells
# Details in all cases: library dose: standard library concentration; 72 h
# G361 = tested on: G361
# IPC-298 = tested on: IPC-298
# IST-MEL1 = tested on: IST-MEL1
# LB2518-MEL = tested on: LB2518-MEL
# LOXIMVI = tested on: LOXIMVI
# MEL-HO = tested on: MEL-HO
# MZ2-MEL = tested on: MZ2-MEL
# MeWo = tested on: MeWo
# RPMI7951 = tested on: RPMI7951
# RVH-421 = tested on: RVH-421
# 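Note: cells treated in 1,536-well plates, then fixed and DAPI-stained, with nuclei counted from automated high-throughput microscope images.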
Structure (SMILES),cell count (G361) [%],cell count (IPC-298) [%],cell count (IST-MEL1) [%],cell count (LB2518-MEL) [%],cell count (LOXIMVI) [%],cell count (MEL-HO) [%],cell count (MZ2-MEL) [%],cell count (MeWo) [%],cell count (RPMI7951) [%],cell count (RVH-421) [%]
"Cc1nc(Nc2ncc(C(=O)Nc3c(C)cccc3Cl)s2)cc(N2CCN(CCO)CC2)n1 [dasatanib] + CCc1ccc(CCOc2ccc(CC3SC(=O)NC3=O)cc2)nc1 [pioglitazone] (first compound 0.02 µM, partner dose 10 µM)",62.6,83.6,74.9,85.1,21,78.5,56.7,88.7,42,57.6
"C[C@]1(c2nc3c(C(N)=O)cccc3[nH]2)CCCN1 [Veliparib] + NCC(=O)Nc1ccc(-n2nc(C(F)(F)F)cc2-c2ccc3c(ccc4ccccc43)c2)cc1 [OSU03012] (first compound 7 µM, partner dose 5 µM)",80.9,58.3,77.7,86.3,75.6,74.3,93,84.3,110,83.1
"NC(=O)Nc1cc(-c2cccc(F)c2)sc1C(=O)N[C@H]1CCCNC1 + O=C(O)c1ccc(-c2c[nH]c3ncc(-c4ccccc4)cc23)cc1C1CCCC1 [GSK650394] (first compound 0.1 µM, partner dose 0.8 µM)",61.2,81.5,20.3,85.3,60.7,77.3,94.8,76.4,52.4,17.8
"C[C@]1(c2nc3c(C(N)=O)cccc3[nH]2)CCCN1 [Veliparib] + CC1(C)NC(=O)N(c2ccc([N+](=O)[O-])c(C(F)(F)F)c2)C1=O [nilutamide] (first compound 7 µM, partner dose 5 µM)",89.2,105,82.9,78.3,77.8,99.4,102,88.9,116,73.9
"NC(=O)Nc1cc(-c2cccc(F)c2)sc1C(=O)N[C@H]1CCCNC1 + COc1ccc(COc2ccc(Cc3cnc(N)nc3N)cc2OC)cc1 [GW2580] (first compound 0.1 µM, partner dose 5 µM)",81.7,80.1,111,81.6,78.2,86.3,109,79.3,31,113
"NC(=O)Nc1cc(-c2cccc(F)c2)sc1C(=O)N[C@H]1CCCNC1 + Cc1cc([N+](=O)[O-])ccc1NS(=O)(=O)c1cc(Cl)ccc1Cl [FH535] (first compound 0.1 µM, partner dose 5 µM)",46.8,56.7,69.6,112,69.8,56.8,29,72.2,51.3,76.6
"CO[C@@H]1[C@H](N(C)C(=O)c2ccccc2)C[C@H]2O[C@]1(C)n1c3ccccc3c3c4c(c5c6ccccc6n2c5c31)C(=O)NC4 [Midostaurin] + Cc1cc([N+](=O)[O-])ccc1NS(=O)(=O)c1cc(Cl)ccc1Cl [FH535] (first compound 0.4 µM, partner dose 5 µM)",30.5,40.7,42.5,57.2,76.5,51.2,34.3,49,49.6,52.1
"NC(=O)Nc1cc(-c2cccc(F)c2)sc1C(=O)N[C@H]1CCCNC1 + OCCn1cc(-c2cnc3nnn(Cc4ccc5ncccc5c4)c3n2)cn1 [PF04217903] (first compound 0.1 µM, partner dose 5 µM)",91.9,85.4,89.9,72.3,74.2,79.6,116,89.3,33.7,124
"C=CCn1c(=O)c2cnc(Nc3ccc(N4CCN(C)CC4)cc3)nc2n1-c1cccc(C(C)(C)O)n1 + O=c1cc(-c2cccc3c2Sc2ccccc2S3)oc(N2CCOCC2)c1 [KU55933] (first compound 0.1 µM, partner dose 5 µM)",54.8,71.7,90.5,50.8,103,80.4,83.2,69.6,56.3,84.2
"C[C@]1(c2nc3c(C(N)=O)cccc3[nH]2)CCCN1 [Veliparib] + COc1ccc(-c2ccc3c(N4CCOCC4)nc(N4C[C@@H](C)O[C@@H](C)C4)nc3n2)cc1CO [KU0063794] (first compound 7 µM, partner dose 0.1 µM)",66.6,70.4,101,69.9,75.2,81.4,78,73,86.6,86.1
"NCC(=O)Nc1ccc(-n2nc(C(F)(F)F)cc2-c2ccc3c(ccc4ccccc43)c2)cc1 + COc1cc2ncnc(Nc3ccc(Oc4ccccc4)cc3)c2cc1OC [SrcI1] (first compound 5 µM, partner dose 10 µM)",7.94,48.5,75.1,70.6,59,32.3,46.1,54.8,2.85,76.6
"CN(C)S(=O)(=O)c1ccc2c(c1)/C(=C/c1cc3c([nH]1)CCCC3)C(=O)N2 + CN(NC(=O)CC(=O)NN(C)C(=S)c1ccccc1)C(=S)c1ccccc1 [STA4783] (first compound 2 µM, partner dose 0.03 µM)",29.8,50.6,42.7,31.2,92,81.7,96.5,21.8,79.4,86.1

# From the supplement of paper PMC4604168 (melanoma cell lines)
